According to the supplement of paper PMC11417369:
This is one part of the list.

Each sequence was assayed on PfSIP2 AP2 domain 1 (GST-tagged) (assay: gcPBM binding intensity (ln(normalized median fluorescence intensity)); higher = stronger DNA binding).
In short: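 GST-tagged P. falciparum DNA-binding domains produced in E. coli were incubated for 1 h on an Agilent 4 × 180k array of primer-extended double-stranded 36-bp intergenic genomic probes with negative controls. Binding intensity is the highest Masliner-normalised natural-log median intensity across replicate spots of either probe orientation, with bound protein detected by Alexa488 anti-GST antibody at 488 nm.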

Row | Sequence | gcPBM binding intensity (ln)
1 | AATAAAAAAAAAATAAATTTAATAATAATAATAAAA [CACACA_negctrl_site569] | 6.64
2 | TTTATATATTTTAGGAGTACATTAAATTATACCTTA [XGTACX_site5600] | 7.24
3 | TGTATATATATTTATGCATGCTGTGTGTATTCTTTT [TGCATGCA_site74] | 6.9
4 | ATTAATATTTAGACTTGTACATATATAATATATGTC [XGTACX_site3766] | 6.88
5 | ATAAAATATCAATACCGTACACAAGCAGGTAAAATA [XGTACX_site3719] | 6.87
6 | CTTTTTTGTAATAACACACACACAAACAGAAAAAAT [CACACA_site2075] | 7.55
7 | AATATAAATATAAATTGTACTTAAAAATTTCACGCA [XGTACX_site5234] | 6.91
8 | TTAAAAAACTATAATACACACCAAAAATATGCACAT [CACACA_site7079] | 9.04
9 | TTTCGTTGTGTATTTTGTACATATTTTTAATTATAT [XGTACX_site6687] | 7.23
10 | TCCTTTTGAACCCTTTTTCTCACAAGACCTTTATAT [TGCATGCA_negctrl_site413] | 7.05
11 | AAGAAAAAGATGCGCATACACACAGATGAATAACAA [CACACA_site1627] | 7.15
12 | TTTCTTTTTTAAATTAAAATTTTTTTTTTTTTCGGT [TGCATGCA_negctrl_site52] | 6.67
13 | TTATTTCAAAGTTGTTGTACAAAAATATATTTATAA [XGTACX_site5226] | 7.13
14 | AAAAAAATAATGTACACACACATATATGTTTATATA [CACACA_site6234] | 7.12
15 | AATTAAAAAGTTTTTAATGTTTTTAATTTTTTCCAC [XGTACX_negctrl_site423] | 7
16 | AAAGGTGTATTTAATACACACGTGTCATTAAAATTG [CACACA_site4508] | 6.74
17 | TATATAAATTATGTGAGTACATAATTTAGAAGGAAC [XGTACX_site2807] | 7.33
18 | TTCTTTTTTATTTATACATGCAATAAAAAATTGATT [TGCATGCA_site730] | 7.27
19 | TTTTTTTAAAACAAAAAAAAAAAAAAAAAAAAAAAA [TGCATGCA_negctrl_site418] | 6.78
20 | AATAAACATTATTTTCGTATTCCAATTCTTTTTTTT [XGTACX_negctrl_site374] | 6.79
21 | AAGAGAGAGAAATATGCACACATAAGGGAAATAAAT [CACACA_site8300] | 7.41
22 | TATATATGTATGTATGTACACACAAAAAATGGAATA [CACACA_site9235] | 7.1

Row | Sequence | gcPBM binding intensity (ln)
23 | TTATTATTAGAAAAAAGTACACATATAAAATGTTAC [XGTACX_site6426] | 6.89
24 | GGATACATATGTAAAAGTACACATGAATATATACAT [XGTACX_site6469] | 7.24
25 | GTAAAATTAAAAATAACACACAAAAAAAAAAAAAAA [CACACA_site800] | 6.93
26 | AAAAAAAAAAGAAAAAGTACATACATACATATATAT [XGTACX_site6405] | 7
27 | TTTTAATTAGTACAAACACACATATACAGACAAAAA [CACACA_site2563] | 7.35
28 | AGACGATAAATCATTCATTCATTTACCATCCAAAAA [CACACA_negctrl_site802] | 6.74
29 | TAATATAGAAAATGCATACACACTTTATATATATAT [CACACA_site911] | 8.82
30 | TACTATTATTATTGCACACTTATTATCCCTCGGATA [CACACA_site162] | 7.13
31 | AATATATATTAATACACACACACATATATATATATA [CACACA_site3786] | 9.32
32 | TGATCATAGAAACACACACACAAAAAAAAAAAAAAA [CACACA_site4008] | 7.06
33 | AAAATTTTTTTTGGCGCACACTAATAATAAAATATA [CACACA_site470] | 7.23
34 | CTTTTTAATGAATACACACACACACCGATATATATA [CACACA_site5296] | 7.5
35 | AAATATTATTGACGATGTACTTCTATTCATAAGTAT [XGTACX_site3964] | 6.74
36 | GAATAATATGGACATACACACATATACATACCTATA [CACACA_site7075] | 7.25
37 | TAAAACTTATACAAATGTACAAATATATATATATAT [XGTACX_site4661] | 8.89
38 | TATATAAATATACACCCACACACATATATATATATA [CACACA_site9247] | 9.73
39 | TATATATATAACATATGTACATATATTTATAAATAC [XGTACX_site5484] | 8.08
40 | AATAATTTAATACATACACACGTATATCTTTTTTTT [CACACA_site8632] | 7.07
41 | ATCGTAGTATAATATGAACACACACCCACCCACAAA [CACACA_site8616] | 7.34
42 | TATATTCCACTCATTGATTTTCTCTTCTCACAAAAA [CACACA_negctrl_site1016] | 7.01
43 | TATAAAAAAAAATGTGGTACATATTTCCATTTTCCA [XGTACX_site4571] | 7.07
44 | TTATTTTTATTATAAATTATAAAATATAAATAAATA [GTGCAC_negctrl_site616] | 6.79

Row | Sequence | gcPBM binding intensity (ln)
45 | TAAATCCGCACGCACACACACATATTAATAAAAAAA [CACACA_site7800] | 7.67
46 | CATGAATTTTTTTAATGTACATTCACATCATAAAAA [XGTACX_site7475] | 7
47 | ATATATTATATATATAGTACGTATATAAATTTAATT [XGTACX_site5041] | 7.14
48 | TCTTCTTAACCAACTATGAAAAGGAAAAATATAACA [GTGCAC_negctrl_site565] | 7
49 | GAAACTATGTAATGCACACCAAAATAAAATTATTAA [CACACA_site1904] | 7.99
50 | ATTATAAAAAAGAAACGTACATATTTATTGTTTTTT [XGTACX_site2161] | 6.99
51 | TATAATAATACTTATTGTACTATTAGTTTAATTCAT [XGTACX_site6638] | 6.73
52 | ATCTTTCAATAATTCACACATATATATATATATATA [CACACA_site4598] | 9.91
53 | CTATTACAAAGAAATTGTACATATATATATAAAAAC [XGTACX_site8800] | 7.16
54 | ATATATATATATGTACACATATATGTGTTTGTTTTT [GTGCAC_negctrl_site5] | 9.12
55 | AATGAAGACTTTTTTACACACTTCATATCTTATAGA [CACACA_site7046] | 6.57
56 | AGCCACAATACGGAAACACACAAGTTATTTTATCAT [CACACA_site2724] | 7.01
57 | TTTTTATGAATTCTTTTGTTAATAATAATATGTTGT [TGCATGCA_negctrl_site198] | 7.01
58 | TTTTAACGTAATTCAAATGAGCAGAATTTTTTAAAA [CACACA_negctrl_site1800] | 6.66
59 | AATATTTTTAATTAATGTACATATTTATTATATAAA [XGTACX_site5112] | 7.1
60 | AAATTTTTTCCGATTTGTACTTATATTTCTTTATTA [XGTACX_site1762] | 6.67
61 | TAAATAAATTTATGTACACACACAAATAAATACATA [CACACA_site5107] | 7.23
62 | AAAAAAAAGAAAAACACACACATATTTATTTATAAC [CACACA_site6600] | 6.93
63 | TATATATTAAATTATAGTACACATTATATATAATTA [XGTACX_site4841] | 7.14
64 | TATATATATATATATAGTACACATATCACATAAATG [XGTACX_site6379] | 9.54
65 | ATAATATATGTATGTATGCACTTTTATTATTTTTTT | 8.01
66 | ATAATATATATATTTTGTACACATGAAAAGGAGGAT [XGTACX_site5034] | 7.88

Row | Sequence | gcPBM binding intensity (ln)
67 | ATAAAGTCTATATTATGTACATATAATATAAATATT [XGTACX_site6703] | 7.09
68 | GAACATTACGTAAATAAATAAATAAAAATAAATACA [XGTACX_negctrl_site25] | 6.92
69 | AAAAAACTTCACATATGTACTTAAAAAAAATTAAAA [XGTACX_site2368] | 7.15
70 | TATTGTCTTGTATATGCATGTAGACCAAATATGTAA [TGCATGCA_site9] | 7.16
71 | CAAAAAAAAATCTGTAGTACTTATTAATATTGCTGT [XGTACX_site4767] | 7.1
72 | ATCACAAAAAAGTTCATACACACAACCTATTTATAT [CACACA_site2888] | 7.01
73 | AAATCAAATTTTTAGAGTACTTAAGTTTTCTATATA [XGTACX_site7827] | 6.91
74 | TCCCCATATGTTTTGTGTACATATATATTTTTTTGT [XGTACX_site75] | 7.19
75 | TAATATATTAATATATGTACATATTTATATATCTAC [XGTACX_site7117] | 7.27
76 | AAATAAGAGCGTAGCACACACGCATTTTATAAATGG [CACACA_site4571] | 6.65
77 | TCATATAAGTTTAGTAGTACTAAAAGTTAGAGAGAA [XGTACX_site3430] | 7.42
78 | ATATATGGAAAGAGTAGTACTATTATAGGGGTGTTA [XGTACX_site6785] | 7.13
79 | TGATTATTATAATTTAGTACATAATATTTTATATAA [XGTACX_site6125] | 7.07
80 | CAAGGAACCAGACACACACACATAAATGTATATATA [CACACA_site752] | 7.01
81 | AAAACAAAAGAATTCACACATATATATATATATATA [CACACA_site4777] | 9.68
82 | AAAATTAAACATACATCACACATGCATTATATTATG [CACACA_site5517] | 7.21
83 | AAAATTAACGAGTGCACACATATTTAGATAAAATAC [CACACA_site2936] | 11.2
84 | TTAAACGTACATAATACACACACATGTAGACATATA [CACACA_site8635] | 7.09
85 | ATACTTTATTAATATTGTACAAAATAAGAAAAAAAA [XGTACX_site310] | 7.1
86 | ACATAAAAATTATGCACACTTAATAAAGCGAAATGT [CACACA_site3183] | 7.72
87 | CACAACAGGGTTGAGGTGCGTAAAAATAGTAGAATA [GTGCAC_site9523] | 9.02
88 | TTTTTAATCCTTTGCGCATGTAAAATTATATATTTT [TGCATGCA_site306] | 7.43
